Data taken from the supplement of paper PMC11417369.
The list shows a part of the results.

Test system: PF3D7_0420300 AP2 domain 1 (GST-tagged)
Test: gcPBM binding intensity (ln(normalized median fluorescence intensity)); higher = stronger DNA binding
Summary of the method: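 Binding intensity values are the highest Masliner-normalised natural-log median intensity among replicate spots of either probe orientation. The binding step lasted 1 h in 1× PBS with 1% milk, 0.2 mg/ml BSA, 0.5% salmon testes DNA and 0.03% Triton X-100, using GST-tagged P. falciparum DNA-binding domains expressed in E. coli on an Agilent 4 × 180k array of primer-extended double-stranded 36-bp intergenic genomic probes plus negative controls. Alexa488 anti-GST antibody and a 488 nm scan detected bound protein.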

Sequence | gcPBM binding intensity (ln)
CTTTTTCTTTTCCGGCGTACAGACTTAGTAGTAGAT [XGTACX_site2268] | 9.11
TAAAATATAGGAAATACATGCATATTAAATATTCCT [TGCATGCA_site1057] | 9.26
TACTTCATTCATTTTACACACATATAAACCCTTTTA [CACACA_site3229] | 9.7
TACATGCAAAAAATTCCACACACACCCCCACATATA [CACACA_site8329] | 10.2
TATATAGCTAAAAACACACAAATATGTACACATAAA [CACACA_site7665] | 9.58
ACTAATACATAAAAAAGTACAAATATGAGTATTAAC [XGTACX_site7281] | 9.71
AATATTCAATATAAAGTGCATTATTGTGGACCTAAT | 9.4
CAATTATTGTAATGCATGCACTGAATATAAAAAGAA | 9.29
TTTATATGTATTAAGTGTACACATATAATGTATTTT [XGTACX_site16] | 9.25
AAATTAATGTATATGTGAAGCAAGGGATGCGGCAGA [CACACA_negctrl_site406] | 9.67
ATATATATATATATATAATATATAATATATATATAT [CACACA_negctrl_site96] | 8.94
TAAAAAAAAACTCATGCACACAATATTATGAAAAAG [CACACA_site665] | 9.57
TTATTTACAACTTCAAATTATGTGTAATACTACTAT [CACACA_negctrl_site741] | 9.27
AAATATTATGTACGCACACACATTTTTAATATATAA [CACACA_site3851] | 9.58
AGCACATTATTCAAAAGTACAAATAGGTATTGTATA [XGTACX_site6107] | 9.18
TTTTTTTCTTTTTACATACACACAAAAAAATAAAAT [CACACA_site580] | 9.27
AATATAAAAAAAAAAAAAAAAAAAAAAAAAAAGACA [CACACA_negctrl_site983] | 9.49
TTGTTAATATGATAAAAGAGGAATATTCTCTTCCTA [GTGCAC_negctrl_site659] | 8.79
AAGAGTTAAAAAAATACACACATATAGATTTTTTTA [CACACA_site7018] | 9.42

Sequence | gcPBM binding intensity (ln)
ATAAATAAAAAAGAAAGAAAGAAAGAAACAAACAAA [CACACA_negctrl_site1198] | 9.84
TATTAATGCAAATGTTATATGTGCATACATAAATGT [CACACA_negctrl_site790] | 9.12
TATTACATACATATCTGTACATATATTAATGCACAA [XGTACX_site3315] | 9.1
AAAAATATTAAAAAAGGTACACAGCATATCTCTTTT [XGTACX_site65] | 9.31
TTCATATTCGATAAAGTGCATTAATTTTATTTATCA | 9.08
TCCAATTGTTCTAGTGTGCACATAAATAAATCTCAT | 9.35
AATACTTTTTTCTGTACACACTTGATTTACTATAAT [CACACA_site5544] | 9.74
GATAAAGTAAAAATATGTACATATATATTTTAAGTT [XGTACX_site6439] | 9.31
TATATCTGTAAATGCACACATATGTGGATATACTTA [CACACA_site5013] | 9.31
GTTCATTCATTTTAATGTACAAATTTAACTTTTTCT [XGTACX_site680] | 9.16
TCTAATAATATATACACACACATATATATTTATATA [CACACA_site2032] | 9.71
TGCTACATTCTATGTACACACATATACATATATATA [CACACA_site893] | 9.52
TATAAATATAAATACACACACATATAGATTATAGAT [CACACA_site6429] | 10.1
AGAAATTATAAATACCTACACACTTATCAAAATAAA [CACACA_site2264] | 9.55
TAAGACATGATATATACACACCTTGTTTTAATTTTC [CACACA_site5282] | 9.43
AATTAAAATACAAATGTATGCATGTCTCATATAGAA [TGCATGCA_site822] | 9.28
TTACGAATTACATATTGTACATATGCACAATTTTAA [XGTACX_site6802] | 8.99
TACATAATTTAAAATTTTATAAGTTGTAATTCGTTT [XGTACX_negctrl_site308] | 9.09
ATAAAACAACAAAGAAAATGAAAAAGTAAAAACATA [CACACA_negctrl_site596] | 9.65

Sequence | gcPBM binding intensity (ln)
TATTTATAAAAAGATTGTACATTTTTTATTATTGTA [XGTACX_site6016] | 8.97
TCCTATAATAACGTCACACATTAAATTTAATAAATT [CACACA_site4506] | 9.21
AGTGCATACATGAATTGTACTTTAAAATAAATTCTA [XGTACX_site8156] | 8.9
AAAAAAAAAAAAAAAACACACATATATCTATAATAT [CACACA_site6665] | 9.54
TATACAAAATATTTTACACACACATATATATACATA [CACACA_site2616] | 9.88
CATTATTTATTTTAATGTACTTATTTTTAAATTGGT [XGTACX_site8038] | 9.15
TCTTTTCAATTATCCTATATTCTTTTATTTTTAATT [GTGCAC_negctrl_site326] | 9.39
CATACACCCATACATACACACATACATACACCCATA [CACACA_site5124] | 9.78
AACAAATAAAGCTATGACATGTTAAAATTGTTTCAC [XGTACX_negctrl_site67] | 9.29
ATATCTAAATATATTACACACAGATATCTTCCTATA [CACACA_site3701] | 9.58
AGAGAAAAATATTTGGACAAAAATAATATAATATAT [CACACA_negctrl_site656] | 9.34
ATAAAGGAATTTTATACACACAACATATAAATATAT [CACACA_site7365] | 9.75
ATTCGTATGAGCATAACACACAATATCGATATTTCT [CACACA_site4165] | 9.46
TTAACATTATATGAAGGTACAGAAAAAAAAAAATTA [XGTACX_site8530] | 9.2
TTTCTTATAGATTTTAATCCTCTATCAAAAAAAGAA [GTGCAC_negctrl_site162] | 8.53
CATACAGTATTATACTGTACCCATACAAAAAAATAT [XGTACX_site6130] | 9.36
AAATAAAAAAAATTTGCACACCTTCAAAGTAATATA [CACACA_site1583] | 9.41
TTTTTAATATTCTATGCATGCATCGCATATTTGGTT [TGCATGCA_site1004] | 9.26
CTTATTTAAGAGTATGAACACACATCATACACATAT [CACACA_site9205] | 9.47
